# From paper PMC4855533
# By UniProt entry, the sequences of proteins in these tests, tags left out.
# UniProt P49759: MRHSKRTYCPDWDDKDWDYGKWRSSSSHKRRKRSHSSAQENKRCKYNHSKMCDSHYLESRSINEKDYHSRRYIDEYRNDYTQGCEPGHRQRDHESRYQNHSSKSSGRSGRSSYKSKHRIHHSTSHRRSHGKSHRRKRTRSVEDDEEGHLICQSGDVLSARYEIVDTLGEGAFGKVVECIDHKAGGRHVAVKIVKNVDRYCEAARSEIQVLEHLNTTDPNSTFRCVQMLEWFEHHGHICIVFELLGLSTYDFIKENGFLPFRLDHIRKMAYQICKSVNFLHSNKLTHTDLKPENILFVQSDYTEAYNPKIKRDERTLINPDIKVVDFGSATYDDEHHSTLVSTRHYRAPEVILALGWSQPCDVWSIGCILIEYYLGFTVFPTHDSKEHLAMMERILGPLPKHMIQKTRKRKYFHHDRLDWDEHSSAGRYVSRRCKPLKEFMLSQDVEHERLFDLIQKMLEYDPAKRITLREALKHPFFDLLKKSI
# UniProt P49760: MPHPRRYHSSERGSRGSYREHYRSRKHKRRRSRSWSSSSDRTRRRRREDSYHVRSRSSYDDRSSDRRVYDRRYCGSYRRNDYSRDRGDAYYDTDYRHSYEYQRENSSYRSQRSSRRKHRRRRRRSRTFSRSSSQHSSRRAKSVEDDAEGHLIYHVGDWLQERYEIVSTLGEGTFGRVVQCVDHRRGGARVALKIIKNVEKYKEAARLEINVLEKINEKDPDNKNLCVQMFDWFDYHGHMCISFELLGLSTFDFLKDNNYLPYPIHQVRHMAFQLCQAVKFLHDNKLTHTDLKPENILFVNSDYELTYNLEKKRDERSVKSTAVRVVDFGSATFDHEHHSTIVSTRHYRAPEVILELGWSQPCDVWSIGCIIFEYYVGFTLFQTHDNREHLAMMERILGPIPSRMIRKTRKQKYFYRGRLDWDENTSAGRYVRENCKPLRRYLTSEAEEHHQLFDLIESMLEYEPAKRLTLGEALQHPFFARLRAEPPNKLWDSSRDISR
# UniProt Q9HAZ1: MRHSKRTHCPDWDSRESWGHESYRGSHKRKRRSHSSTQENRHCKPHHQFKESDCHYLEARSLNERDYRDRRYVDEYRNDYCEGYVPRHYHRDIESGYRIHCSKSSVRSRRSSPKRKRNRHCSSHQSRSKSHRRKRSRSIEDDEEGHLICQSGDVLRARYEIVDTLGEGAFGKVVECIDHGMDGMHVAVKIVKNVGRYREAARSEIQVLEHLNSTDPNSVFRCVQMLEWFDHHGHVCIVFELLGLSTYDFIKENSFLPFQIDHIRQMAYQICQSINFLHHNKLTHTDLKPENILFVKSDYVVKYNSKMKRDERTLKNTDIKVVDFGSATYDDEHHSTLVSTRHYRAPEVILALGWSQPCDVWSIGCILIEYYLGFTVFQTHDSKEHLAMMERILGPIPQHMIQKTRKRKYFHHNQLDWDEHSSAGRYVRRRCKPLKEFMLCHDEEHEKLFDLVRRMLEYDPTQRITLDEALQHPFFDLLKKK
# UniProt Q96GD4: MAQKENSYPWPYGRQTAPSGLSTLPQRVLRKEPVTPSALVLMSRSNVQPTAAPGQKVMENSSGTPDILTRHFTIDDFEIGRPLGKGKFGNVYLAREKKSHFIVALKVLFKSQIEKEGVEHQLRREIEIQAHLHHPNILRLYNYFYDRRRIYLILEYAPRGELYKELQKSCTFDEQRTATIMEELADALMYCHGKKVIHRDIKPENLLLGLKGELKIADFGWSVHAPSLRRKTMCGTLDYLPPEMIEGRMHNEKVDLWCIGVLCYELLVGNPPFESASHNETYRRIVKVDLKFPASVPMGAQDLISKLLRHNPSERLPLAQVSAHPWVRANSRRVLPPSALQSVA
# These are yes or no findings as the source states them, for the method shown. Binding seen in cells or lysates may run through a third protein. Some results given as binding are weak or reduced against the parent protein; the word gives no strength.
# Assays:
# [1] = target: Cdc-like kinase 1 (endogenous Clk1) (human (endogenous in BE cells)) (UniProt P49759); experiment: condition: only asynchronous cells (not enriched in cytokinesis); co-IP; asynchronous cells; lysate with anti-Clk antibody, protein A/G PLUS-agarose; endogenous proteins, western blot
# [2] = target: Cdc-like kinase 2 (endogenous Clk2) (human (endogenous in BE cells)) (UniProt P49760); experiment: as above
# [3] = target: Cdc-like kinase 4 (endogenous Clk4) (human (endogenous in BE cells)) (UniProt Q9HAZ1); experiment: as above
# [4] = target: Cdc-like kinase 1 (endogenous Clk1) (human (endogenous in BE cells)) (UniProt P49759); experiment: co-IP; cytokinesis-enriched BE cells (nocodazole 16 h, release 2 h); 3-4 mg lysate with 0.5 ug anti-Clk antibody for 16 h, protein A/G PLUS-agarose 1 h at 4 °C; endogenous proteins, western blot
# [5] = target: Cdc-like kinase 2 (endogenous Clk2) (human (endogenous in BE cells)) (UniProt P49760); experiment: as above
# [6] = target: Cdc-like kinase 4 (endogenous Clk4) (human (endogenous in BE cells)) (UniProt Q9HAZ1); experiment: as above
# [7] = target: WT GST-tagged Aurora B (human) (UniProt Q96GD4); experiment: pull-down; 1 mg lysate of cytokinesis-enriched cells expressing Clk:GFP incubated with 10 ug glutathione-agarose-bound GST proteins for 6 h at 4 °C; 50 mM HEPES pH 7.5, 150 mM NaCl, 0.1% Tween 20; anti-GFP western blot; only the target purified
Substance,binding [4],binding [5],binding [6],binding [7],also measured
Aurora B kinase (endogenous) (from UniProt Q96GD4 1-344) (enzyme),binds,binds,binds,–,binding [1]: no binding; binding [2]: no binding; binding [3]: no binding
Clk2 fused to GFP (Clk2:GFP) (from UniProt P49760 1-499) (enzyme),–,–,–,binds,–
Clk4 fused to GFP (Clk4:GFP) (from UniProt Q9HAZ1 1-481) (enzyme),–,–,–,binds,–

# More lines, main results first:
binding [4],binding [5],binding [6],binding [7],Substance,also measured
binds,–,binds,–,Cdc-like kinase 2 (endogenous Clk2) (from UniProt P49760 1-499) (enzyme),–
binds,binds,–,–,Cdc-like kinase 4 (endogenous Clk4) (from UniProt Q9HAZ1 1-481) (enzyme),–
–,–,–,binds,Clk1 fused to green fluorescent protein (Clk1:GFP) (from UniProt P49759 1-484) (enzyme),–
